Reference: the RNAGym collection of RNA variant scans (doi:10.7554/elife.90254)
The source gives no read counts; variants with many changes may rest on few reads.

B1: LINE1-mini (parent)
chain: GGCAGAGCUCAACACAGCGUGGCAAAGUGGCUGUGGCUAGACUGCC

Variants of: B1
Assay: self-cleavage, relative activity (ratio to wild type); higher = more cleavage; in vitro, sequencing; the parent is a self-cleaving ribozyme
A11U G17A G27U G29U showed a self-cleavage of 0.03. Variant A12G C23U C31U G36U U38A has a self-cleavage of 0.06. Variant C10A A41G C46U has a self-cleavage of 0.04. C18A C31G C45G gave a self-cleavage of 0.01. A4G C13U C45A gave a self-cleavage of 0.14. Work on G1U C18A C23U G35U yielded a self-cleavage of 0.05. Variant A6U C8G A14C A16U A26C C42G has a self-cleavage of 0. In the case of A14C C37U C45A, the self-cleavage is reported as 0.02. Variant C3G G7A G22U C45A has a self-cleavage of 0.2. G19U C23A C46A showed a self-cleavage of 2.58. Variant G19A G22A G33U has a self-cleavage of 0.11. Work on A26G C31G U34C yielded a self-cleavage of 0.02. With G7A C8U U28C G29A U34C C42U the self-cleavage was 0.3. With C10G G17A G33A the self-cleavage was 0.03. In the case of A6G C10U A11U, the self-cleavage is reported as 0.02. Variant G7A G40A C45U has a self-cleavage of 0.2. With C3U C23A U34A C45A C46U the self-cleavage was 0.04. C10A U20A G36C gave a self-cleavage of 0. Work on G1C G21A G22C C23G A24G A25U yielded a self-cleavage of 0.1. Work on A4U C18A G21A A25U yielded a self-cleavage of 0.11. C13A G19C C31G gave a self-cleavage of 0.05. For U9G A12G G22U, the self-cleavage was 0.07. G5U A6U A39U gave a self-cleavage of 0.12. For G2C C31U G36A, the self-cleavage was 0.11. Variant A6U C8A G29A G36U A39G has a self-cleavage of 0.05. In the case of G19C G27A A41G G44C, the self-cleavage is reported as 0.01. In the case of G21U G22A A39G, the self-cleavage is reported as 0.02. In the case of G7A G21U G22U U32A A41G, the self-cleavage is reported as 0.06. Variant C18A U28G G30A G33C has a self-cleavage of 0.04. G5C C13A G29U G35U gave a self-cleavage of 0.07. In the case of C10A U20A G35U G36C, the self-cleavage is reported as 0.01. Work on C37U G40A G44C yielded a self-cleavage of 0.24. Variant G1C G7U G17A has a self-cleavage of 0.04. For C13U G17A G27C U28A U32C, the self-cleavage was 0.02. Work on A14C A24C G35C G36A C37G yielded a self-cleavage of 0.24. With G5A G17U G27C the self-cleavage was 0.06. Variant G7U C13G C15G has a self-cleavage of 0.21. A14U G27A C31A G35U gave a self-cleavage of 0.09. C15U G17C U20C A25U U43G gave a self-cleavage of 0. With G5C A6G G40U the self-cleavage was 0.14. For C13U G17U A26C C42U, the self-cleavage was 0. C3U U20A A26C C37A A41U gave a self-cleavage of 0.01. Work on A11C C18U G19U C23A U32A yielded a self-cleavage of 0. For G2A A14C C15U, the self-cleavage was 0.04. G2U G33A U34C G36A gave a self-cleavage of 0.02. C13U C18A U38G G40A C45A showed a self-cleavage of 0. G1U C8A U32C G33A gave a self-cleavage of 0.04. Work on A16C U20C U32A yielded a self-cleavage of 0.02. C8A C10U A12U C13G C18A showed a self-cleavage of 0.03. Variant A6U U28C G36U A39C has a self-cleavage of 0. With G7U U20G A26G C31A G36C the self-cleavage was 0.01. With G2U A11U G33A the self-cleavage was 0.01. With A6C A25C C45U C46G the self-cleavage was 0.19. Variant A14U G27A U32A U34G C46U has a self-cleavage of 0.04. Variant A4C A11C C13G has a self-cleavage of 0.02. For G22U G36C G44A, the self-cleavage was 0.06. In the case of C18A C37U C42G, the self-cleavage is reported as 0.04. A4G A6U U34C C37U A39G gave a self-cleavage of 0.15. In the case of G7C C8G G22U, the self-cleavage is reported as 0.39. Variant G2U G19A G22U has a self-cleavage of 0.03. With G7A A16C G40U the self-cleavage was 0.4. Work on C3A C10U C15G yielded a self-cleavage of 0.07. C8G A24G G27A C42A showed a self-cleavage of 0.03. G5U G29A G30C U34A C45U gave a self-cleavage of 0.02. C15U G22A A25U C45G gave a self-cleavage of 0.45. For C10G A14U C18G U20A G22U A26U G30A G44A C45G, the self-cleavage was 0.01. A25C G27A G29A showed a self-cleavage of 0.91. Work on A6U G40U A41G yielded a self-cleavage of 0.1. With C31G G33U C42A G44C C46A the self-cleavage was 0.03. Variant A24G G30U U43A has a self-cleavage of 0.2. For C15G G21A C37U, the self-cleavage was 0.01. C15G G21U A41G gave a self-cleavage of 0.06. For C8U G21A C37U, the self-cleavage was 0.14. A14G G17U U38A showed a self-cleavage of 0.04. Work on G7U G29A G35A A39U yielded a self-cleavage of 0.05. In the case of G7U C10G G27U U28G G36A U38C C42A, the self-cleavage is reported as 0.01. For G7A U28A C45G, the self-cleavage was 0.18. With A11C G27A U28C the self-cleavage was 0.05. Variant A4G U20A G35A has a self-cleavage of 0.15. Variant C8G G22A C46U has a self-cleavage of 0.03. With G2C G21U G40A the self-cleavage was 0.05. G22A C23U U28A G29U gave a self-cleavage of 0.13. Variant G2U G21C G27U has a self-cleavage of 0.08. With G2U G30A U38C C45G the self-cleavage was 0.02.
